Test results from PubChem BioAssay AID2546 (National Center for Advancing Translational Sciences (NCATS), 2010).
About 11,000 (3.5%) of roughly 310,000 compounds were called active. Inconclusive results, whose numbers are uncertain, are shown with a selection of clear calls. Calls follow the shape of the dose curve; as a rule, active = well fitted inhibition curve with a large enough effect; inconclusive = small, poorly fitted or top-dose-only effect, or effect the other way; inactive = flat fitted curve, though single readings scatter. No potency is given beside an inconclusive call; the fits are too rough.

Assay: VP16 counterscreen qHTS for inhibitors of ROR gamma transcriptional activity;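 also: Gal4-VP16 expression switched on by copper sulfate through the metallothionein promoter; nearly all actives have a fitted effect of over 50% in size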
Conditions: Drosophila S2 Gal4-VP16 UAS-luciferase, luminescence, 20 h; activity, negative = inhibition: at 53.6 µM (top of the series)
% is scaled to controls: 0 for no effect and ±100 for the full control effect; potency is read from the fitted curve at half-maximal effect; tags tell the direction and shape of the fitted curve.

Row | SMILES | Potency | activity, negative = inhibition
1 | CCNc1ccc(C(=O)O)cc1N | inconclusive [activator, single point] | –
2 | O=C(NC(=S)NC(c1ccccc1)c1ccncc1)c1ccccc1 (stereo unspecified) | inconclusive [inhibitor, single point] | –
3 | COc1ccc(CN2C(=O)CN(C3CCCCCC3)C(=O)C2c2ccc(F)cc2)cc1 (stereo unspecified) | inactive | –
4 | COc1ccc(NC(=S)N2CCN(C(c3ccccc3)c3ccccc3)CC2)cc1OC | active: 12.6 µM | –
5 | CCc1nnc(NC(=O)C2c3ccccc3Oc3ccccc32)s1 | inconclusive [inhibitor, single point] | –
6 | CC1(C)CC2(CC(c3ccccc3)Oc3cc(O)ccc32)NC(=S)N1 (stereo unspecified) | active: 8.91 µM | –
7 | Cn1nccc1C(=O)Nc1nnc(C2CC2)s1 | inconclusive [activator, single point] | –
8 | CCc1ccc(/C=C2\Oc3ccc(C(=O)OC)cc3C2=O)cc1 | inconclusive [inhibitor, partial curve] | –
9 | CCN(CC(=O)Nc1ccc(OC)cc1)C(=O)c1ccc([N+](=O)[O-])cc1 | inactive | –
10 | C#CCCCO/N=C1/C[C@@H](O)[C@@H](O)[C@@H]2[C@@H]3C(=O)N(CC)C(=O)[C@H]3CC[C@@H]12 | – | inactive: -3.83% [at 10 µM]
11 | Cc1[nH]nc2c1C(C1CC=CCC1)C(C#N)=C(N)O2 (stereo unspecified) | active: 11.2 µM | –
12 | Cc1ccc2c(c1)C(c1ccccc1)C(=O)O2 (stereo unspecified) | inactive | –
13 | Cc1cc(C(=O)CSc2nnnn2C)c(C)n1-c1cccc(F)c1 | inactive | –
14 | CC(=O)c1cccc(NC(=S)NC(=O)c2cccc(Cl)c2)c1 | active: 10 µM | –
15 | Cc1cc(C)n(Cc2ccc(C(=O)Nc3cccc(Br)c3)o2)n1 | inconclusive [activator, single point] | –
16 | Cc1nn(Cc2ccc(Cl)c(Cl)c2)c(C)c1NC(=O)c1cc(CC(C)C)on1 | inconclusive [inhibitor, single point] | –
17 | O=C(N/N=C/c1cccn1-c1ccccc1)c1ccncc1 | active: 20 µM | –
18 | O=C(NCCCn1ccnc1)/C(=C\c1ccccc1Cl)NC(=O)c1ccccc1 | inactive | –
19 | CC1=CCC2C(=O)N(c3nc4ccccc4n3C)C(=O)C2C1 (stereo unspecified) | inconclusive [inhibitor, single point] | –
20 | Cc1ccc(NC(=S)Nc2ccc(OC(F)F)c(Cl)c2)cc1F | inconclusive [inhibitor, single point] | –
21 | Cc1ccsc1CCNC(=O)C1CCC(=O)N(CCc2cccc(F)c2)C1 (stereo unspecified) | inconclusive [activator, single point] | –
22 | CN(C)CCCN(C(=O)/C=C/c1cccs1)c1nc2ccc(F)cc2s1 | inconclusive [inhibitor, single point] | –
23 | Cc1cccc(C)c1Nc1nnc(SCc2nc3ccccc3s2)s1 | inconclusive [inhibitor, single point] | –
24 | Cc1cccc(C(=O)NNC(=O)c2c(-c3ccccc3Cl)noc2C)c1O | inactive | –
25 | Cc1ccccc1Cc1c(C)nc2c(C(=O)NCc3ccc4c(c3)OCO4)cnn2c1C | inactive | –
26 | O=C(O)CN(c1ccccc1)S(=O)(=O)c1cc(C(F)(F)F)cc(C(F)(F)F)c1 | inactive | –

Row | SMILES | Potency | activity, negative = inhibition
27 | COC(=O)c1sc(NC(=S)NC(=O)c2ccccc2)nc1C | inconclusive [inhibitor, partial curve] | –
28 | Cc1ccc(C(=O)NCCS(=O)(=O)N2CCN(c3ccccc3F)CC2)cc1[N+](=O)[O-] | inactive | –
29 | CC1=NN(c2ccccc2)C(=O)/C1=C\c1ccc(Br)s1 | inconclusive [inhibitor, single point] | –
30 | CC1CCN(S(=O)(=O)c2ccc(NC(=O)Cn3nnc(-c4ccccc4)n3)cc2)CC1 | inconclusive [inhibitor, single point] | –
31 | Fc1ccc(CNCc2cccc(Br)c2)cc1 | inactive | –
32 | Cc1cc(=O)[nH]c(N2CCN(C(c3ccccc3)c3ccccc3)CC2)n1 | inconclusive [inhibitor, single point] | –
33 | CCCCN(CC)CCNC(=O)C1CCN(S(=O)(=O)c2cccc3nsnc23)CC1 | inconclusive [inhibitor, single point] | –
34 | COc1ccccc1N1CCN(C(=O)c2n[nH]c3ccccc23)CC1 | inconclusive [activator, single point] | –
35 | CCOc1ccc(NC(=S)N(CCCN2CCOCC2)Cc2cn(C)c3ccccc23)cc1 | inconclusive [inhibitor, single point] | –
36 | Cc1ccc(OCc2nnc(SCC(=O)Nc3ccc4c(c3)OCCO4)n2Cc2ccco2)cc1 | inconclusive [inhibitor, single point] | –
37 | CC(C(=O)Nc1ccc(O)cc1)c1cccc(C(=O)c2ccccc2)c1 (stereo unspecified) | inconclusive [inhibitor, single point] | –
38 | CSCCC(NC(=O)c1ccccc1)C(=O)N(C)CC(=O)Nc1ccc(N2CCOCC2)cc1 (stereo unspecified) | inconclusive [inhibitor, single point] | –
39 | CCOC(=O)/C(=C/c1c2ccccc2cc2ccccc12)NC(=O)c1ccccc1 | inactive | –
40 | FC(F)(F)c1ccc(CN2C[C@@H]3C(c4ccccc4)C4(c5cccnc5)CC3(C4)[C@H]2c2ccccc2)cc1 (stereo partly specified) | inactive | –
41 | S=C(NCc1ccco1)N/N=C/c1ccccc1Cl | inconclusive [inhibitor, single point] | –
42 | CCCCNC(=O)Nc1cc(C(F)(F)F)c[nH]c1=O | inactive | –
43 | CN(C)c1ccc(N2C(=NC(=O)C3CCCO3)SC3CS(=O)(=O)CC32)cc1 (stereo unspecified) | inconclusive [activator, single point] | –
44 | CN(C)c1ccnc(N(Cc2ccccc2)Cc2ccccc2)c1C#N | inconclusive [inhibitor, single point] | –
45 | CCN1CCN(C(=S)Nc2cccc(C(F)(F)F)c2)CC1 | inconclusive [activator, single point] | –
46 | Cc1ccc(S(=O)(=O)c2ccc([N+](=O)[O-])cn2)cc1 | active: 3.55 µM | –
47 | CC(=O)Nc1ccc(/C=C(\C#N)C(=O)NC2CCCCC2C)cc1 (stereo unspecified) | inactive | –
48 | CCOC(=O)Cc1csc(NC(=S)NC(=O)C(C)(C)C)n1 | inconclusive [inhibitor, single point] | –
49 | O=C(c1ccco1)N1CCN(C(=O)C2CC(c3ccc(F)cc3)=NO2)CC1 (stereo unspecified) | inconclusive [activator, single point] | –
50 | O=C(Nc1cccc([N+](=O)[O-])c1)c1ccc(-c2ccccc2)cc1 | inconclusive [inhibitor, single point] | –
51 | COc1ccc(S(=O)(=O)N2CCC(C(=O)Nc3ccc(F)cc3)CC2)c2cccnc12 | inconclusive [activator, single point] | –
52 | Cc1ccn2c(CNCC3OCCc4ccccc43)c(C(=O)N3CCCCCC3)nc2c1 (stereo unspecified) | inactive | –

Row | SMILES | Potency | activity, negative = inhibition
53 | COc1cccc(NC(=S)N2CCCN(Cc3ccc(F)cc3)C2)c1 | inconclusive [inhibitor, partial curve] | –
54 | O=S(=O)(c1ccccc1)N1CCN(c2ccnc3cc(Cl)ccc23)CC1 | inconclusive [inhibitor, single point] | –
55 | CC(C)=CCC1=C(OCC(=O)O)C(=O)c2ccccc2C1=O | active: 2.24 µM | –
56 | COc1cc2c(cc1OC)CN(c1ccc(F)cc1[N+](=O)[O-])CC2 | inactive | –
57 | COCCNC(=O)CSc1nc2ccc(N3CCOCC3)cc2c(=O)n1Cc1ccc(OC)cc1 | active: 14.1 µM | –
58 | O=C(NCCc1ccc(F)cc1)c1cccs1 | inactive | –
59 | Cc1cccc(NC(=S)NNC(=O)COc2ccc(Cl)cc2Cl)c1 | active: 2.82 µM | –
60 | CCn1c(SCC(=O)Nc2ccc3c(c2)c2ccccc2n3CC)nnc1-c1cnccn1 | inconclusive [activator, single point] | –
61 | COc1oc(=O)c2cc(N)ccc2c1Cl | active: 14.1 µM | –
62 | CCCCCC(=O)NC(=S)NNC(=O)c1ccc([N+](=O)[O-])cc1 | inconclusive [inhibitor, single point] | –
63 | Oc1ccc(N=Nc2n[nH]c(-c3ccc(Cl)cc3)n2)cc1 | inactive | –
64 | Nc1nc(-c2ccc(F)cc2)cc(C(F)(F)F)n1 | inactive | –
65 | COc1ccc(C(=O)NN=C(Cc2ccccc2)Cc2ccccc2)cc1OC | inconclusive [inhibitor, single point] | –
66 | CCNc1nc(SCCOc2ccc(Cl)cc2Cl)nc(N(C)C)n1 | inconclusive [inhibitor, single point] | –
67 | Cc1sc2nc(C(C)C)nc(SCC(=O)N3c4ccccc4CC3C)c2c1C (stereo unspecified) | active: 17.8 µM | –
68 | COc1cc(NC(=S)NCCC(c2ccccc2)c2ccccc2)c(OC)cc1Cl | active: 3.16 µM | –
69 | COc1cccc(NC(=O)Nc2ccc(CC(=O)O)cc2)c1 | active: 20 µM | –
70 | CCOc1ccc2nc(NS(=O)(=O)c3cccs3)sc2c1 | inconclusive [activator, single point] | –
71 | S=C(NCc1ccccc1)Nc1nccs1 | active: 1.26 µM | –
72 | Oc1ccc(Br)cc1-c1cc(-c2ccccc2)n[nH]1 | inconclusive [inhibitor, single point] | –
73 | O=C(CCC(=O)Nc1ccccc1Cl)NNS(=O)(=O)c1ccc(Cl)cc1 | inactive | –
74 | Cc1ccnc(N2CCCC(C(=O)NC3CC3)C2)n1 (stereo unspecified) | inactive | –
75 | COc1ccccc1NC(=O)C/C(C)=N/NC(=O)c1ccccn1 | inconclusive [activator, partial curve] | –
76 | COC(=O)C1C(c2ccc(OC)c(OC)c2)NC(c2ccc(OC)c(OC)c2)C(C(=O)OC)S1(=O)=O (stereo unspecified) | inconclusive [inhibitor, single point] | –
